Assay results published in publication PMC4336329 (PLoS ONE, 2015).
Out of some 310,000 compounds screened, about 14,000 (4.5%) showed an effect of 50% or more. Effects have a minus sign here. This is one part of the list.

What follows are compounds tested against human ether-à-go-go-related gene (hERG) potassium channel (human, UniProt Q12809) (assay: primary screen, population patch clamp on CHO cells stably expressing hERG).
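Further: peak tail current of the secondary pulse compared with the same well before compound.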

Chain of human ether-à-go-go-related gene (hERG) potassium channel (Q12809 whole entry, looked up): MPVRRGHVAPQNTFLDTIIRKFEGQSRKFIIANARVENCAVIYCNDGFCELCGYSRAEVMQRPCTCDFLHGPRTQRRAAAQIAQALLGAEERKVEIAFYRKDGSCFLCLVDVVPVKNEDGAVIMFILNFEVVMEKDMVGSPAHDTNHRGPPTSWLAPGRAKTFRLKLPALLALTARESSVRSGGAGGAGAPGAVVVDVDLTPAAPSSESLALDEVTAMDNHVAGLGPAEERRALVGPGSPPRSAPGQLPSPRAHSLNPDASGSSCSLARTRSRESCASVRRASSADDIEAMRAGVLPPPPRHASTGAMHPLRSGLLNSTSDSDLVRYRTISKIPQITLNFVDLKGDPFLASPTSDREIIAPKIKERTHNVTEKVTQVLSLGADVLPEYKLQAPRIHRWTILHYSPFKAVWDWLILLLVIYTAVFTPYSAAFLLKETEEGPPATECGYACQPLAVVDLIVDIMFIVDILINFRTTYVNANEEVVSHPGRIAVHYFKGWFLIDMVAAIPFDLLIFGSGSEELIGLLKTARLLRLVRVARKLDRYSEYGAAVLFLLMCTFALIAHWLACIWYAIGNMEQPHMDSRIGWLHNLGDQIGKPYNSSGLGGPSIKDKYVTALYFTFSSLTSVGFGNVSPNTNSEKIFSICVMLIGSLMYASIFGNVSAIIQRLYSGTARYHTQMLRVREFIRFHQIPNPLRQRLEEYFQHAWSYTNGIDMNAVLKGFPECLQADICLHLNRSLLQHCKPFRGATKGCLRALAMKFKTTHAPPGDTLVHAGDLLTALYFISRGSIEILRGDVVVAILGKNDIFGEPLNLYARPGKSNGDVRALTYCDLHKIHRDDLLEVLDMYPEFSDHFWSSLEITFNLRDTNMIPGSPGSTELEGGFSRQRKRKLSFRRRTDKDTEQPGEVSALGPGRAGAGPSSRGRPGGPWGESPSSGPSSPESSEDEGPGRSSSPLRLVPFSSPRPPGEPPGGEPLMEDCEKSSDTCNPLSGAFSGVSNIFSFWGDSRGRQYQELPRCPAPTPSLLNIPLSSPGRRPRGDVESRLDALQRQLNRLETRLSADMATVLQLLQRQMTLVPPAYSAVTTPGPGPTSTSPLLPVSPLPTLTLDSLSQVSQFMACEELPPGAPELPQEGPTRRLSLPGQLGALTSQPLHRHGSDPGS

Row | Structure (SMILES) | hERG current change (%, negative = inhibition) at 10uM [%]
1 | COc1ccccc1CN(C)C(=O)CN1CCN(C(=O)c2cccs2)CC1 | -5.91
2 | N#Cc1sc2nccc(Nc3ccccc3)c2c1N | 3.43
3 | Cc1cc(C)cc(NS(=O)(=O)c2coc(C(N)=O)c2)c1 | -7.02
4 | O=C(c1cn(-c2ccccc2)nc1-c1cccc([N+](=O)[O-])c1)N1CCCCC1 | -5.02
5 | COC(=O)c1ccc(N=C(c2ccccc2)c2c(O)n(C)c(=O)n(C)c2=O)cc1 | 6.79
6 | Cc1cccc(NC(=O)N(Cc2cc3cc(C)cc(C)c3[nH]c2=O)CC2COCCO2)c1 (stereo not shown) | -6.58
7 | CCN(c1ccccc1)S(=O)(=O)c1ccc(OC)c(NC(=O)Cc2ccc(OC)c(OC)c2)c1 | -1.02
8 | CCOc1ccc(/C=C/C(O)=C2/C(=O)N(C)C3(C)CC2c2ccccc2O3)cc1OC (stereo not shown) | 0.355
9 | CC(C)Cn1c(N)c(C(=O)CSc2nnnn2C)c(=O)n(C)c1=O | 4.91
10 | Cc1ccc(NC(=O)CCNC(=O)Cn2cnc3ccccc3c2=O)cc1F | 16.2
11 | CC(C)(C)NC(=O)Nc1ccc(F)c(Cl)c1 | -0.708
12 | COCCSc1nnc(NC(=O)C2CC(=O)N(CCc3ccc(F)cc3)C2)s1 (stereo not shown) | 3.33
13 | Cc1nn(-c2ccccc2)c(Cl)c1C(=O)N1CCN(c2ncnc3c2cnn3-c2ccccc2)CC1 | -29.1
14 | COc1cc2[nH]c(=S)n(N(C(C)=O)C(C)=O)c(=O)c2cc1OC | 10
15 | CC(NC(=O)c1ccccc1NC(=O)c1ccncc1)c1ccccc1 (stereo not shown) | 4.33
16 | COc1cc2c(cc1OC)CN(c1ccc([N+](=O)[O-])cc1Cl)CC2 | -41
17 | O=C(CCN1C(=O)C2C3C=CC(C3)C2C1=O)NCCc1ccccc1Cl (stereo not shown) | -8.46
18 | Cc1ccc(CNS(=O)(=O)c2ccc3c(c2)NC(=O)CS3)cc1 | 8.97
19 | Cc1n[nH]c(=O)c2c(NC(=O)CSc3nnc(-c4ccncc4)n3C)oc(C)c12 | 12.8
20 | CSc1cc(-c2ccncc2)nc(-c2ccc(Cl)cc2)c1 | 9.7
21 | OC[C@H]1O[C@@H](O[C@@H]2[C@@H](CO)O[C@@](O)(CO)[C@H]2O)[C@H](O)[C@@H](O)[C@H]1O | 15
22 | O=C(NCCc1ccc(F)cc1)c1cccs1 | 10.4

Row | Structure (SMILES) | hERG current change (%, negative = inhibition) at 10uM [%]
23 | COC(=O)c1c(-c2ccc(F)cc2)csc1NC(=O)c1ccco1 | 22.9
24 | O=C(CCCSc1nc2ccccc2s1)NCc1ccc2c(c1)OCO2 | -18.5
25 | COc1ccccc1C1=NOC(C)(c2sc(-c3ccc(Cl)cc3)nc2C)C1 (stereo not shown) | 15
26 | Cc1ccc(C)c(S(=O)(=O)N2CCCC2CNC(=O)C(=O)NCc2ccccc2)c1 (stereo not shown) | -48.3
27 | COC(=O)c1sc(-c2ccccc2)cc1NC(C)=O | 23.1
28 | CC1(C)C(=O)OC(C(=O)c2ccc(C(C)(C)C)cc2)C(C)(C)C1=O (stereo not shown) | 8.26
29 | CC(=O)Nc1ccc(S(=O)(=O)N2CCN(c3ccccn3)CC2)cc1 | -3.36
30 | O=C(CSc1nnc(-c2ccccc2)o1)N1CCOCC1 | 6.37
31 | CCOC(=O)Cn1nc(C)c(NC(=O)COc2ccc(F)cc2F)c1C | 12
32 | CCOc1ccc(NC(=O)CN(C)C(=O)Cn2cnc3c2c(=O)n(C)c(=O)n3C)cc1OCC | 5.62
33 | O=C(c1ccc2nc(Cc3cccc(Cl)c3)oc2c1)N1CCC(O)CC1 | 4.01
34 | CC(=O)Nc1ccc(SCC(=O)c2cc(C)n(-c3ccccc3)c2C)cc1 | -7.38
35 | CCS(=O)(=O)N1CCN(c2ccc([N+](=O)[O-])c(NCc3ccccc3)c2)CC1 | -10.8
36 | CCN1CCN(c2ccc(S(=O)(=O)N3CCOCC3)cc2NC(=O)c2ccc(C)c(C)c2)CC1 | -40
37 | CCCN(C(=O)CSCc1ccccc1C)c1c(N)n(Cc2ccccc2)c(=O)[nH]c1=O | -4.64
38 | Cc1ccccc1NC(=O)C(C)c1cccc(C(=O)c2ccccc2)c1 (stereo not shown) | 0.0553
39 | N#Cc1c(N)nc(SCC(=O)NCCc2ccccc2)c(C#N)c1-c1cccs1 | 16.6
40 | CCCCc1cc(=O)oc2cc(OS(C)(=O)=O)ccc12 | -38.3
41 | CCOc1ccccc1NC(=O)Cn1nnc(-c2ccc(OCC)c(OCC)c2)n1 | -8.29
42 | NNC(=O)/C(=C\c1ccc(Br)cc1)NC(=O)c1cccs1 | -14.3
43 | Cc1cccc(OCCNc2nc3c(c(=O)n(C)c(=O)n3C)n2C)c1 | 2.15
